# Whole data set: some 33,000 sequences, median “E-score (-0.5 to 0.5)” near -0.054, cut for the highest 2% near 0.35. Some of the results follow.
# Biological target: T1, Stb5 (UniProt P38699)
# T1 sequence: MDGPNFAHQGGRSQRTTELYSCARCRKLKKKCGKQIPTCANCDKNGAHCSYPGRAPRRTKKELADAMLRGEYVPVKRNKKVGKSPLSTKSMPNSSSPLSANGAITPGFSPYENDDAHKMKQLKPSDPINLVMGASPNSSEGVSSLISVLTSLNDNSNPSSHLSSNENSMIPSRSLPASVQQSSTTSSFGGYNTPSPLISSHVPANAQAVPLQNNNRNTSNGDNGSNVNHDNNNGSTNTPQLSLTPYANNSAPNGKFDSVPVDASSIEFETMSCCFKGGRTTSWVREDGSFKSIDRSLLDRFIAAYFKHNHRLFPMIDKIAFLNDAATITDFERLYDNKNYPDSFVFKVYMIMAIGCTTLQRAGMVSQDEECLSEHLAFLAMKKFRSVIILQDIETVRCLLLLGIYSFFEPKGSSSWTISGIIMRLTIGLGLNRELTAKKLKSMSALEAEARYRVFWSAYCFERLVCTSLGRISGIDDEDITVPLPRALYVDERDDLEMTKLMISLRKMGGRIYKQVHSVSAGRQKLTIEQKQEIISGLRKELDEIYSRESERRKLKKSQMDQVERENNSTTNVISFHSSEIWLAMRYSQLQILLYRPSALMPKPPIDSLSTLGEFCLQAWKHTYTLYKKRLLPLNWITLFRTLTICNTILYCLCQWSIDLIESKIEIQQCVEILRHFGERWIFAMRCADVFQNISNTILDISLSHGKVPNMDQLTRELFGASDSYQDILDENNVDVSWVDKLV
# Assay: PBM E-score (8-mer binding enrichment) (E-score (-0.5 to 0.5)); higher = stronger / more preferred TF binding; most listed sequences are background and not binding sites
# Settings: protein concentration: 200 nM; construct: GST-full length
# In short: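 PURExpress in vitro transcription/translation supplied GST-tagged yeast transcription factors, either full-length or DNA-binding domain. Applied at about 100-200 nM to universal all-10-mer Agilent arrays double-stranded by primer extension, the bound protein was detected with fluorescent anti-GST. E-scores, modified Wilcoxon-Mann-Whitney statistics, were given by the Universal PBM Analysis Suite to ungapped eight-base words pooled with their reverse complements after masliner normalisation.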
row,Sequence,PBM E-score
1,GCTGCCAA,-0.0125
2,CACACAGG,-0.233
3,AAATCGTA,-0.131
4,ATGGCAAC,-0.184
5,GAATGGTA,-0.208
6,GTGTGTGA,-0.132
7,GTTCTTCA,-0.229
8,CATTGAGA,-0.116
9,GGATTCCC,0.0375
10,GGGTTAAC,0.164
11,CAGCGTCA,0.0486
12,CCAGGTCA,-0.121
13,AGCAAACA,-0.217
14,AATCTGAT,-0.0432
15,TGGCTCAA,-0.203
16,CCTCTTAC,-0.189
17,CGTTCAAA,0.0863
18,CATTGCGA,-0.222
19,AGTTCCTG,-0.17
20,GAAATGAA,0.0353
21,CAGAATGA,-0.196
22,ATCCTTGC,-0.114
23,AACCATTG,-0.173
24,CCAAAGCA,-0.135
25,AATTACCC,0.0888

row,Sequence,PBM E-score
1,CCAGAACC,-0.206
2,GCTCTGCC,-0.165
3,CCCTAGCA,-0.0317
4,GGTTTGCA,0.0951
5,AGCTTGGG,-0.0117
6,CGACGAAG,0.0563
7,GTGTAGAA,-0.176
8,CTATAGAC,0.0193
9,ACTACCTA,-0.0759
10,ATCACTTC,-0.165
11,CCCTTAAC,0.0588
12,AGACCCTC,-0.0954
13,CGCCTTAA,0.0389
14,CGTGGAAG,0.101
15,GGGGGACA,-0.187
16,GGACCTAA,0.365
17,GGTGTGGA,0.192
18,CATTCACG,-0.00633
19,AGAGGTCA,-0.139
20,CGCCGTGA,0.252
21,CACGGGGC,0.221
22,ATATAATA,0.048
23,CACGCGTC,0.0362
24,GGGTAACA,0.0577
25,CGCCATGC,0.0141

row,Sequence,PBM E-score
1,TGCAACCA,-0.213
2,GTGGTGAA,-0.0313
3,CCTGGACA,-0.196
4,CCAGGCAA,-0.231
5,CTGCACCA,-0.158
6,CCTAGTAC,-0.15
7,AGCGAGAC,-0.0631
8,CTTTTGTA,-0.0255
9,ACGACGGG,0.241
10,CTCATGCC,-0.103
11,CAGTAACC,0.0517
12,ATTCCCCA,-0.226
13,GGTTATCA,-0.198
14,AACTTTGT,-0.107
15,CTTCTGGC,-0.191
16,CACGGGCA,0.123
17,CAAGAGTA,-0.108
18,CCGACTCA,0.259
19,AGTTTGTA,0.0191
20,CGATCGGA,0.315
21,GAGACCAC,-0.212
22,ATACCAGC,0.0806
23,AGGTTGAT,-0.262
24,ATATCGAC,0.123
25,CGTATTCA,0.0341

row,Sequence,PBM E-score
1,CGATTACG,-0.0146
2,ATTTGAAG,0.0267
3,GACCTACC,0.11
4,CGCGACTC,-0.0784
5,TATAGAGA,-0.298
6,CGTGACAC,0.0335
7,AGCAGATG,-0.351
8,CCATTTCA,-0.268
9,GCAACGAC,-0.0149
10,CTCATGTA,-0.0741
11,AATCGAAA,-0.146
12,AAAGCGGG,0.297
13,AACGGCGT,0.348
14,CGACTTAG,-0.00588
15,AGTACGAG,0.00173
16,GCTAACTA,-0.0778
17,GCCCTAAA,0.131
18,ACTCTTCG,0.00681
19,GCCCCTTA,-0.0344
20,ACTAACAT,-0.0718
21,ACCAAACG,0.0282
22,CTACTGTC,-0.184
23,ACTCCAGT,-0.263
24,GAGTTTAC,0.115
25,GAGGTCCC,-0.19

row,Sequence,PBM E-score
1,ATATTACC,0.285
2,TGCGCACA,-0.0378
3,AATTATCG,-0.143
4,TACTAGTA,0.027
5,AATATAGC,0.0403
6,AGAAGAAA,-0.168
7,GCTAGCAA,-0.095
8,CGCGGGGC,0.321
9,AATCGGGG,0.372
10,GAGTTCGA,-0.0998
11,GCTCTCGA,-0.189
12,ACATAGGA,-0.0626
13,ACTAGAGC,-0.249
14,CAGCCGCC,0.0327
15,CAATCCTG,-0.186
16,CACTCCGG,0.219
17,CGCCGGAC,0.396
18,ATGGCTGA,-0.346
19,AATCGAAG,-0.124
20,TAGCGAGA,-0.0466
21,CCGATGCC,0.288
22,ATTTGCGG,0.209
23,AGCCTAGC,-0.134
24,AACCCTCT,-0.263
25,CCGCGTCA,0.0384

row,Sequence,PBM E-score
1,AGACCCGA,0.287
2,TGCTACCA,-0.134
3,CTACACTC,-0.0452
4,TAGCACGA,-0.075
5,ACCTCTTG,-0.0574
6,AACCCGAA,0.128
7,ATTAGACC,0.213
8,CCGCAAAA,0.192
9,CGGGCCCA,0.328
10,AGGACCCC,-0.0587
11,CCGATTCA,0.15
12,CAACGACC,0.02
13,GTGGGAAA,-0.116
14,CTCACCCA,-0.23
15,CCGGGTAC,0.25
16,ATTAGTAG,-0.165
17,GACTATCC,0.0813
18,CAGAGACA,-0.213
19,AACAACTT,-0.0677
20,GCCACGGA,0.173
21,CTCCCATC,-0.00999
22,ACACCTCT,-0.134
23,GAATTAGA,-0.0146
24,ACACTTTG,-0.108
25,ACAACTTC,-0.199

row,Sequence,PBM E-score
1,CGGCCTCA,0.363
2,AGCTCGTC,-0.113
3,TTATGAAA,0.119
4,GCTGCAAA,-0.0972
5,CCGAGGCC,0.0761
6,ATACTTCC,0.166
7,CAACTGTC,-0.096
8,GAATACTC,-0.0176
9,ACGTGGGG,-0.101
10,ATACGAGA,-0.271
11,GACTGGGC,-0.113
12,GTCGATGA,-0.211
13,GCGAGGTA,-0.0571
14,CGATCTGC,0.156
15,CGTTGAAG,-0.204
16,ACAGGGGA,-0.11
17,AGTCAGCA,-0.17
18,TACGTGGA,0.0792
19,CCTTGTCC,-0.11
20,CTCTGCTC,-0.31
21,AGCTTAAT,-0.00951
22,CCTCTAGA,-0.183
